# Reference: PubChem BioAssay AID1794743 (DTP/NCI, 2022)
#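 Treatment: one concentration, 48 hours, 96-well format. Scoring: percent growth, with anything below 10 considered active.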 Not every entry of the source has a single result; some have several. Only these are listed. There may be further records. These are repeated runs of one drug, at its own concentration, as given; each value is one run. Brackets with × stand for listed records that agree.
# Test system: DMS 114
# Experiment: NCI-60 one-dose screen, 48 h (100 = growth as untreated, 0 = no growth, -100 = all killed)
# Conditions: 2.5 mM
# Experimental: Growth inhibition of the DMS 114 human tumor cell line is measured as a screen for anti-cancer activity. Cells are grown in 96 well plates and exposed to the test compound for 48 hours. Compounds are tested at a single concentration, which is 10^-5 M for most compounds. The reported endpoint is percent growth (GI% or GIPRCNT), where numbers from 0 - 100% represent growth inhibition, and numbers from -100% - 0 represent cell death. For example, a value of 40 represents 60% growth inhibition. A value of 0 means no net growth occurred over the course of the experiment. A value of -40 indicates 40% of cells at the beginning of the experiment died by the end of the experiment. A value of -100 means all cells are dead at the end of the experiment.
# NCI-60 Human Tumor Cell Lines Screen was performed using the standard one-dose NCI protocol, which is described in more detail at https://dtp.cancer.gov/discovery_development/nci-60/default.htm.
# Compounds with GIPRCNT values below 10 were considered active. Activity score was based on GIPRCNT using the following formula: […]
# Score is 0 for GIPRCNT values of 100 or above, 50 for GIPRCNT values of 0, and 100 for GIPRCNT values of -100.
compound,measurement,setting,value
O=c1[nH]cc(F)c(=O)[nH]1,growth,runs of 1991,"41.1, 39.2, -50, -5.8, 31, 24.3, 17, 22.6, -3.29, 34.1, 15.6, 21.2, 22.8%"
same,growth,runs of 1992,"-8.67, -10.9, 21.3, -6.63, 5.1, 21.2, 23.9, 28.7, 15.5, 13.5 (2×), 18.1 (2×), -1.97, 27.9, 17.6, 8.78, 19.9, 15.4 (3×), 99, 17.7 (2×), 14.1, 33.8, 7.54, 20.6, 3.23, 23.5 (2×), 24.6 (2×), 31.3, 28.1, 18.8, 2.77, 12.1, 2.26, 5.09, 18.7, -8.73, 14.4, -7.68, 19.8, -16.9, 5.66, 24.9, 25.4, 25.2, 11.3, -11.5, 10.8, 12, 12.5, 7.67, 6.61, 2.32, 8.35, 1.99, -21.1, 17.9, -3.9, 3.71, 9.36, 5.89, -4.05, -5.12, 25, 2.92, -1.4, 15.3, 16.2, -13.3, -4.58, 32.5, 33.2, 4.44, -6.33, 8.23, 19.4, -10.6, 0.0521, 45.6, 8.74, 27.3, 15.7%"
